# Measured values reported in PMC12136788.
# Some of the results follow.
# T1: UNK ZnF1-6 (called full-length) (human, UniProt Q9C0B0 30-357)
# T1 sequence: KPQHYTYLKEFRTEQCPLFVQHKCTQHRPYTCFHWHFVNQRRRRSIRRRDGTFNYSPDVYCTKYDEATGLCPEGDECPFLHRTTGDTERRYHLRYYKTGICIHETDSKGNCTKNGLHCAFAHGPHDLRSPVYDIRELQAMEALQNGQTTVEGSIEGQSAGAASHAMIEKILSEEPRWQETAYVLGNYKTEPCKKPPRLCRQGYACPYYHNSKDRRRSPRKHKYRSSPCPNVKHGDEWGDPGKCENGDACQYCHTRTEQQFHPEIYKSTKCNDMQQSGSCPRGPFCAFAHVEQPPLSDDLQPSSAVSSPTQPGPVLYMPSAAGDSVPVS
# B1: ENSG00000136451:be:win_2251|3pUTR|ENSG00000136451|bound_else_gene|NA|bound_elsewhere_windowed (ssRNA)
# RNA: GGGAGUUCUACAGUCCGACGAUCGAUGGAAUAUAGCAUUGUAGUUGACUUUUUAAAAAAAAAAAAAAUUUAAAAAAAAUCUACAAAUUGUGUUUUGCUAAGAAAAGCCUCAACUGACAGAGGAGAAGUCAAGUGUGUGGACAGCAACAGAGGAUUGAGCAUCA
# B2: ENSG00000124766:be:win_2001|3pUTR|ENSG00000124766|bound_else_gene|NA|bound_elsewhere_windowed (ssRNA)
# RNA: GGGAGUUCUACAGUCCGACGAUCAUUUGGCCGAUGGCAGAUGUUUUGGGGGAACGCCGGGACUGAGAGACUCCACGCAGGCGAAUUCCCGUUUGGGGCUUUUUUUUCCUCCCUCUUUUCCCCUUGCCCCCUCUGCAGCCGGAGCAACAGAGGAUUGAGCAUCA
# B3: chr2:240466480:240466663:+|3pUTR|ENSG00000063660|msi1|FALSE|unique (ssRNA)
# RNA: GGGAGUUCUACAGUCCGACGAUCGGAGCCAGUGUGCCCAAAAGCCAUGUAUUUCAGGGACCUCAGGGGCACCUCCGGCUGCCUAGCCCUCCCCCCAGCUCCCUGCACCGCCGCAGAAGCAGCCCCUCGAGGCCUACAGAGGAGCAACAGAGGAUUGAGCAUCA
# B4: chr1:37709127:37709197:+|3pUTR|ENSG00000134690|msi1_unk|total|mutant (ssRNA)
# RNA: GGGAGUUCUACAGUCCGACGAUCUGAAGACCAAAUACUGGUUUGGAGACAACUUCCAUGUCUUGCUCUUCUACCUCCCCCGUCCGUGGAAAUUUGGAUAAGGGAACUGCCGGGCCCAGAUUCUGGAGGUUUUAUGUCAUUGGCCAACAGAGGAUUGAGCAUCA
# B5: chr13:79312715:79312816:-|3pUTR|ENSG00000139746|unk|FALSE|unique (ssRNA)
# RNA: GGGAGUUCUACAGUCCGACGAUCCCUUGUGAUUUAUUAUAAUGUAGCAGCAUACUUAUAAAAGUGGUCUGUGCUGAGUCAGAUAGAGAGCCCAGCCCAUUAGAAACACAUCAUAAUUUAAGAAUAUGAUGCAGAAUGCCCUUACAACAGAGGAUUGAGCAUCA
# B6: chr10:128104542:128104643:-|CDS|ENSG00000148773|msi1|FALSE|unique (ssRNA)
# RNA: GGGAGUUCUACAGUCCGACGAUCAAGUGAUGAGAAAAAUAUCAACACAUUUGUGGAAACUCCAGUGCAGAAACUGGACCUGCUAGGAAAUUUACCUGGCAGCAAGAGACAGCCACAGACUCCUAAGGAAAAGGCUGAGGCUCUCAACAGAGGAUUGAGCAUCA
# B7: chr17:58308540:58309380:-|CDS|ENSG00000005379|control|control|control (ssRNA)
# RNA: GGGAGUUCUACAGUCCGACGAUCCAUCAGCAUCACCAGCUCCUGCUACCCUGGAGAUGGGGAGGCCUGGGGCACAGCAACUGUAGGAAGGCCCAGGGGGCCUCCGAAGGCCAAUUCAGGCCCCAAGCCCUACCCACGCCUCCCCAACAGAGGAUUGAGCAUCA
# B8: chr15:64682558:64682659:+|3pUTR|ENSG00000180357|unk|total|mutant (ssRNA)
# RNA: GGGAGUUCUACAGUCCGACGAUCCACACUGGUCUUGCCUCUUCUUUUCCACUGCUUGGCUCUUAAGCCUCAGGCAGAUAAACCCGUAUUCCCCCCAGCUUGGGGAACCUUGGAGUCUGCCAGGUCACCUCCGGGCAAGGCCCACAACAGAGGAUUGAGCAUCA
# B9: chr2:73958838:73958951:+|3pUTR|ENSG00000114956|unk|FALSE|unique (ssRNA)
# RNA: GGGAGUUCUACAGUCCGACGAUCCCAGCCCCUCUCAUCCCUGGAGCACUCUGCCGCUCAAGAGCUGGUUUGUUAAUUAUUGUUAGACUUUGCCAUUGUUUUCUUUUGUACCUGAAGCAUUUUGAAAAUAAAGUUUACUUAAGUCAACAGAGGAUUGAGCAUCA
# B10: chr2:190062223:190062596:-|CDS|ENSG00000138379|control|control|control (ssRNA)
# RNA: GGGAGUUCUACAGUCCGACGAUCGGAAAAAGAGGGGCUGUGUAAUGCAUGUACUUGGAGACAAAACACUAAAUCUUCAAGAAUAGAAGCCAUUAAGAUACAAAUCCUCAGUAAACUUCGUCUGGAAACAGCUCCUAACAUCAGCAACAGAGGAUUGAGCAUCA
# B11: ENSG00000107863:be:win_551|CDS|ENSG00000107863|bound_else_gene|NA|bound_elsewhere_windowed (ssRNA)
# RNA: GGGAGUUCUACAGUCCGACGAUCAAGGCAACGAAGCUUAUAGCGGCAAUGCCCGCAAUAUACCUGAACCUCCACCAAUCUGCUAUCCCUGGCUGCCAUCUGCCCCAUCAGCCAUGGCACAGCCAGUUGAAAUAUCUCCUCCUGCAACAGAGGAUUGAGCAUCA
# B12: chr3:98585547:98585662:-|CDS|ENSG00000080819|unk|total|mutant (ssRNA)
# RNA: GGGAGUUCUACAGUCCGACGAUCUCCAUUUGAUCCCUGGUUUGGCGCCGCUGUGUUUUCCAGGUGUGAUGAUUACUUCUUUACCGCCCAUCGUGGAGAACGGCGGGGCAUUGGUGGUAUCUUUUUUGAUGAUCUUGACUCUCCCAACAGAGGAUUGAGCAUCA
# B13: chr9:124811826:124811928:+|3pUTR|ENSG00000185585|msi1|total|mutant (ssRNA)
# RNA: GGGAGUUCUACAGUCCGACGAUCAAGAAAUUUUCCCGCCCAACUCCCUGUUUCAUGAAAGAGAAAAGAGGCUCAGAAAAGUUCCGAGAGCAGCUCAGUGUCACACUGGGAGCUGGGCACAGCCGAUCUCCUUCCAGAAGGGUUCAACAGAGGAUUGAGCAUCA
# B14: chr17:48762233:48762973:-|three_prime_utr|ENSG00000170703|control|control|control (ssRNA)
# RNA: GGGAGUUCUACAGUCCGACGAUCGUCUCUUCCGACAGUGUCUCCAGUGUUCACAGAAUCAACUGAAGUUUUGUUUGCUCAUCUAGAUAUACUGGUCUUCCAUUAGUUCCUAGUAGCAGCAAUGGGGCCAACAGCCCUGCCUCUCAACAGAGGAUUGAGCAUCA
# B15: chr22:45843749:45843850:+|3pUTR|ENSG00000130638|msi1|FALSE|unique (ssRNA)
# RNA: GGGAGUUCUACAGUCCGACGAUCAAAUUGCAAGUGUUUGAAGAUUUAUAAGUACAAAUUUGGGAACAUACAAAUCUUUUAGGUAGUAGAGUUUAACGUGUAUAAGCUAAAAGUGAAAGUAACUGAGUGUUCUCUUGUUUCUUUCAACAGAGGAUUGAGCAUCA
# B16: chr11:119418629:119418730:-|3pUTR|ENSG00000154096|msi1|total|mutant (ssRNA)
# RNA: GGGAGUUCUACAGUCCGACGAUCCCUCAGAGGCCUUGGGGCAUGACCCAGUGAAGAUGCAGGUUUGACCAGGAAAGCAGCGCCCGUGGAGGGUUGGAGAAGGAGGUAAAGGAUGAGGGUUCAUCAUCCCUCCCUGCCUAAGGACAACAGAGGAUUGAGCAUCA
# B17: chr17:39471515:39471616:+|CDS|ENSG00000167258|unk|FALSE|unique (ssRNA)
# RNA: GGGAGUUCUACAGUCCGACGAUCUUGCCUCCAAUACCAGCUCUUCCACAGCAACCACCUCUGCCUCCUUCUCAGCCAGCAUUUAGUCAGGUUCCUGCUUCCAGUACUUCAACUUUGCCCCCUUCUACUCACUCAAAGACAUCUCAACAGAGGAUUGAGCAUCA
# B18: chr2:206003504:206003605:-|3pUTR|ENSG00000114933|msi1|total|mutant (ssRNA)
# RNA: GGGAGUUCUACAGUCCGACGAUCGGUCGUGUGAGCCGCACAACCUUUUUCUGCUAAAAGUCCGCCCAAGAAGAAACAGAACACCGAAAGCUUGGAUUCCCGUCAGUGAGGCCGGGAUGUCCUAAAAAGCUUGCCUGGGAUGACCAACAGAGGAUUGAGCAUCA
# B19: chr1:165890246:165890361:+|CDS|ENSG00000143179|unk|total|mutant (ssRNA)
# RNA: GGGAGUUCUACAGUCCGACGAUCCUCCUGGGGCAGAAUGAGGUGGACUAUCGCCAGAAGCAGGUGGUCAUCCUGAGCCAGGACCGCUUCUACCGUGUCCUUACCUCGGAGCAGAAGGCCAAAGCCCUGAAGGGCCAGUUCAACCAACAGAGGAUUGAGCAUCA
# B20: chr2:30158716:30158817:+|CDS|ENSG00000119801|msi1|total|mutant (ssRNA)
# RNA: GGGAGUUCUACAGUCCGACGAUCGUUUGCCACUGAAGACAGCCAGCGAUAUAAGGAAGGCCGCGUGAUCCUGGAACGUGCUCCCGUUCGAGAGAGUGAGGGCUUUGAGGAGCAUGUACCAUCUGAUAACUCUUGAAGAUACAGCAACAGAGGAUUGAGCAUCA
# B21: chr6:33573622:33573723:-|3pUTR|ENSG00000030110|unk|total|mutant (ssRNA)
# RNA: GGGAGUUCUACAGUCCGACGAUCCGAAGUCUUUGCCUUCUCUGUUCCCUUGCAGGGGUCCCCCCUCAAGAGUACAGAAGCUUCCGCAAGUGUGCACUCCAGCUUCGGAGGGCCCCUGCGUGGGGGCCAGUCAGGCUGCAGAGGCAACAGAGGAUUGAGCAUCA
# B22: chr6:122458524:122458701:-|CDS|ENSG00000111897|unk|total|mutant (ssRNA)
# RNA: GGGAGUUCUACAGUCCGACGAUCGGAAGUGCCCCGUGUUUGCUAUGCCGAUGCUGUCCCCGUGGAAACAACUCCACUGUAACCCGAUUGAUCUAUGCACUUUUCUUGCUUGUUGGAGUAUGUGCCGCUUGUGUAAUGUUGAUACAACAGAGGAUUGAGCAUCA
# Target: T1, UNK ZnF1-6 (called full-length)
# Assay: nsRBNS (natural sequence RNA bind-n-seq); RBNS binding buffer (assumed for nsRBNS): 25 mM Tris pH 7.5, 150 mM KCl, 3 mM MgCl2, 0.01% Triton X-100, 500 ug/ml BSA, 20 U/ml SUPERase-In, 4 C; UNK is unkempt and MSI1 is Musashi-1; names of the RNAs are library labels; protein concentration not given here; high values mean tight binding
row,Binder,binding signal [enrichment R]
1,B1,0.963
2,B2,1.02
3,B3,0.727
4,B4,0.675
5,B5,0.774
6,B6,0.671
7,B7,0.509
8,B8,0.509
9,B9,0.799
10,B10,0.418
11,B11,0.653
12,B12,0.501
13,B13,0.595
14,B14,0.955
15,B15,0.639
16,B16,0.833
17,B17,1.13
18,B18,0.479
19,B19,0.709
20,B20,0.708
21,B21,0.495
22,B22,0.501
